According to the supplement of paper PMC8728848:
This is one part of the list.

Assays:
Assay in all cases: glycan array binding signal (z-score within array); higher = stronger binding
Settings in all cases: glycan notation: IUPAC condensed, linker removed
[1] = target: Gal(b1-4)GlcNAc(b1-2)[Gal(b1-4)GlcNAc(b1-6)]Man(a1-6)[Gal(b1-4)GlcNAc(b1-2)Man(a1-3)]Man(b1-4)GlcNAc(b1-4)[Fuc(a1-6)]GlcNAc
Procedure, shortened: (§1)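 Glycan array binding is given as a within-array Z-score, which can be read as non-binding when negative. The arrays, 3228 of them, came from the Consortium for Functional Glycomics database and were retained only where the protein sequence was available. Z-scores were averaged across arrays of the same protein sequence at different concentrations or buffers and across linkers.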

[2] = target: Gal(b1-4)GlcNAc(b1-2)[Gal(b1-4)GlcNAc(b1-6)]Man(a1-6)[GlcNAc(b1-4)][Gal(b1-4)GlcNAc(b1-2)Man(a1-3)]Man(b1-4)GlcNAc(b1-4)GlcNAc
Procedure, shortened: as §1

[3] = target: Gal(b1-4)GlcNAc(b1-2)[Gal(b1-4)GlcNAc(b1-6)]Man(a1-6)[GlcNAc(b1-4)][Gal(b1-4)GlcNAc(b1-2)[Gal(b1-4)GlcNAc(b1-4)]Man(a1-3)]Man(b1-4)GlcNAc(b1-4)[Fuc(a1-6)]GlcNAc
Procedure, shortened: as §1

[4] = target: Gal(b1-4)GlcNAc(b1-3)Gal(b1-3)GalNAc
Procedure, shortened: as §1

[5] = target: Gal(b1-4)GlcNAc(b1-3)Gal(b1-3)GlcNAc
Procedure, shortened: as §1

[6] = target: Gal(b1-4)GlcNAc(b1-3)Gal(b1-4)Glc
Procedure, shortened: as §1

[7] = target: Gal(b1-4)GlcNAc(b1-3)Gal(b1-4)GlcNAc
Procedure, shortened: as §1

[8] = target: Gal(b1-4)GlcNAc(b1-3)Gal(b1-4)GlcNAc(b1-2)Man(a1-3)[Gal(b1-4)GlcNAc(b1-3)Gal(b1-4)GlcNAc(b1-2)Man(a1-6)]Man(b1-4)GlcNAc(b1-4)GlcNAc
Procedure, shortened: as §1

[9] = target: Gal(b1-4)GlcNAc(b1-3)Gal(b1-4)GlcNAc(b1-2)Man(a1-3)[Gal(b1-4)GlcNAc(b1-3)Gal(b1-4)GlcNAc(b1-2)Man(a1-6)]Man(b1-4)GlcNAc(b1-4)[Fuc(a1-6)]GlcNAc
Procedure, shortened: as §1

[10] = target: Gal(b1-4)GlcNAc(b1-3)Gal(b1-4)GlcNAc(b1-2)[Gal(b1-4)GlcNAc(b1-3)Gal(b1-4)GlcNAc(b1-6)]Man(a1-6)[Gal(b1-4)GlcNAc(b1-3)Gal(b1-4)GlcNAc(b1-2)Man(a1-3)]Man(b1-4)GlcNAc(b1-4)GlcNAc
Procedure, shortened: as §1

[11] = target: Gal(b1-4)GlcNAc(b1-3)Gal(b1-4)GlcNAc(b1-2)[Gal(b1-4)GlcNAc(b1-3)Gal(b1-4)GlcNAc(b1-6)]Man(a1-6)[Gal(b1-4)GlcNAc(b1-3)Gal(b1-4)GlcNAc(b1-2)Man(a1-3)]Man(b1-4)GlcNAc(b1-4)[Fuc(a1-6)]GlcNAc
Procedure, shortened: as §1

[12] = target: Gal(b1-4)GlcNAc(b1-3)Gal(b1-4)GlcNAc(b1-3)Gal(b1-4)GlcNAc
Procedure, shortened: as §1

[13] = target: Gal(b1-4)GlcNAc(b1-3)Gal(b1-4)GlcNAc(b1-3)Gal(b1-4)GlcNAc(b1-2)Man(a1-3)[Gal(b1-4)GlcNAc(b1-3)Gal(b1-4)GlcNAc(b1-3)Gal(b1-4)GlcNAc(b1-2)Man(a1-6)]Man(b1-4)GlcNAc(b1-4)GlcNAc
Procedure, shortened: as §1

[14] = target: Gal(b1-4)GlcNAc(b1-3)Gal(b1-4)GlcNAc(b1-3)Gal(b1-4)GlcNAc(b1-2)Man(a1-3)[Gal(b1-4)GlcNAc(b1-3)Gal(b1-4)GlcNAc(b1-3)Gal(b1-4)GlcNAc(b1-2)Man(a1-6)]Man(b1-4)GlcNAc(b1-4)[Fuc(a1-6)]GlcNAc
Procedure, shortened: as §1

[15] = target: Gal(b1-4)GlcNAc(b1-3)Gal(b1-4)GlcNAc(b1-3)Gal(b1-4)GlcNAc(b1-2)[Gal(b1-4)GlcNAc(b1-3)Gal(b1-4)GlcNAc(b1-3)Gal(b1-4)GlcNAc(b1-6)]Man(a1-6)[Gal(b1-4)GlcNAc(b1-3)Gal(b1-4)GlcNAc(b1-3)Gal(b1-4)GlcNAc(b1-2)Man(a1-3)]Man(b1-4)GlcNAc(b1-4)[Fuc(a1-6)]GlcNAc
Procedure, shortened: as §1

[16] = target: Gal(b1-4)GlcNAc(b1-3)Gal(b1-4)GlcNAc(b1-3)Gal(b1-4)GlcNAc(b1-3)Gal(b1-4)GlcNAc(b1-2)Man(a1-3)[Gal(b1-4)GlcNAc(b1-3)Gal(b1-4)GlcNAc(b1-3)Gal(b1-4)GlcNAc(b1-3)Gal(b1-4)GlcNAc(b1-2)Man(a1-6)]Man(b1-4)GlcNAc(b1-4)GlcNAc
Procedure, shortened: as §1

[17] = target: Gal(b1-4)GlcNAc(b1-3)Gal(b1-4)GlcNAc(b1-3)Gal(b1-4)GlcNAc(b1-3)Gal(b1-4)GlcNAc(b1-2)Man(a1-3)[Gal(b1-4)GlcNAc(b1-3)Gal(b1-4)GlcNAc(b1-3)Gal(b1-4)GlcNAc(b1-3)Gal(b1-4)GlcNAc(b1-2)Man(a1-6)]Man(b1-4)GlcNAc(b1-4)[Fuc(a1-6)]GlcNAc
Procedure, shortened: as §1

[18] = target: Gal(b1-4)GlcNAc(b1-3)Gal(b1-4)GlcNAc(b1-3)Gal(b1-4)GlcNAc(b1-3)Gal(b1-4)GlcNAc(b1-2)[Gal(b1-4)GlcNAc(b1-3)Gal(b1-4)GlcNAc(b1-3)Gal(b1-4)GlcNAc(b1-3)Gal(b1-4)GlcNAc(b1-6)]Man(a1-6)[Gal(b1-4)GlcNAc(b1-3)Gal(b1-4)GlcNAc(b1-3)Gal(b1-4)GlcNAc(b1-3)Gal(b1-4)GlcNAc(b1-2)Man(a1-3)]Man(b1-4)GlcNAc(b1-4)[Fuc(a1-6)]GlcNAc
Procedure, shortened: as §1

[19] = target: Gal(b1-4)GlcNAc(b1-3)Gal(b1-4)GlcNAc(b1-3)Gal(b1-4)GlcNAc(b1-3)Gal(b1-4)GlcNAc(b1-3)Gal(b1-4)GlcNAc(b1-2)Man(a1-3)[Gal(b1-4)GlcNAc(b1-3)Gal(b1-4)GlcNAc(b1-3)Gal(b1-4)GlcNAc(b1-3)Gal(b1-4)GlcNAc(b1-3)Gal(b1-4)GlcNAc(b1-2)Man(a1-6)]Man(b1-4)GlcNAc(b1-4)GlcNAc
Procedure, shortened: as §1

[20] = target: Gal(b1-4)GlcNAc(b1-3)Gal(b1-4)GlcNAc(b1-3)Gal(b1-4)GlcNAc(b1-3)Gal(b1-4)GlcNAc(b1-3)Gal(b1-4)GlcNAc(b1-2)Man(a1-3)[Gal(b1-4)GlcNAc(b1-3)Gal(b1-4)GlcNAc(b1-3)Gal(b1-4)GlcNAc(b1-3)Gal(b1-4)GlcNAc(b1-3)Gal(b1-4)GlcNAc(b1-2)Man(a1-6)]Man(b1-4)GlcNAc(b1-4)[Fuc(a1-6)]GlcNAc
Procedure, shortened: as §1

[21] = target: Gal(b1-4)GlcNAc(b1-3)Gal(b1-4)GlcNAc(b1-3)Gal(b1-4)GlcNAc(b1-3)Gal(b1-4)GlcNAc(b1-3)Gal(b1-4)GlcNAc(b1-2)[Gal(b1-4)GlcNAc(b1-3)Gal(b1-4)GlcNAc(b1-3)Gal(b1-4)GlcNAc(b1-3)Gal(b1-4)GlcNAc(b1-3)Gal(b1-4)GlcNAc(b1-6)]Man(a1-6)[Gal(b1-4)GlcNAc(b1-3)Gal(b1-4)GlcNAc(b1-3)Gal(b1-4)GlcNAc(b1-3)Gal(b1-4)GlcNAc(b1-3)Gal(b1-4)GlcNAc(b1-2)Man(a1-3)]Man(b1-4)GlcNAc(b1-4)[Fuc(a1-6)]GlcNAc
Procedure, shortened: as §1

[22] = target: Gal(b1-4)GlcNAc(b1-3)Gal(b1-4)GlcNAc(b1-3)Gal(b1-4)GlcNAc(b1-3)Gal(b1-4)GlcNAc(b1-3)Gal(b1-4)GlcNAc(b1-3)Gal(b1-4)GlcNAc(b1-2)Man(a1-3)[Gal(b1-4)GlcNAc(b1-3)Gal(b1-4)GlcNAc(b1-3)Gal(b1-4)GlcNAc(b1-3)Gal(b1-4)GlcNAc(b1-3)Gal(b1-4)GlcNAc(b1-3)Gal(b1-4)GlcNAc(b1-2)Man(a1-6)]Man(b1-4)GlcNAc(b1-4)GlcNAc
Procedure, shortened: as §1

[23] = target: Gal(b1-4)GlcNAc(b1-3)Gal(b1-4)GlcNAc(b1-3)GalNAc
Procedure, shortened: as §1

[24] = target: Gal(b1-4)GlcNAc(b1-3)Gal(b1-4)GlcNAc(b1-3)[Gal(b1-4)GlcNAc(b1-3)Gal(b1-4)GlcNAc(b1-6)]GalNAc
Procedure, shortened: as §1

[25] = target: Gal(b1-4)GlcNAc(b1-3)Gal(b1-4)GlcNAc(b1-6)[Gal(b1-3)]GalNAc
Procedure, shortened: as §1

[26] = target: Gal(b1-4)GlcNAc(b1-3)Gal(b1-4)[Fuc(a1-3)]GlcNAc(b1-3)Gal(b1-4)[Fuc(a1-3)]GlcNAc
Procedure, shortened: as §1

[27] = target: Gal(b1-4)GlcNAc(b1-3)GalNAc
Procedure, shortened: as §1

[28] = target: Gal(b1-4)GlcNAc(b1-3)[Fuc(a1-3)GlcNAc(b1-6)]Gal(b1-4)Glc
Procedure, shortened: as §1

[29] = target: Gal(b1-4)GlcNAc(b1-3)[Gal(b1-4)GlcNAc(b1-6)]Gal(b1-4)GlcNAc
Procedure, shortened: as §1

[30] = target: Gal(b1-4)GlcNAc(b1-3)[GlcNAc(b1-6)]Gal(b1-4)GlcNAc
Procedure, shortened: as §1

[31] = target: Gal(b1-4)GlcNAc(b1-6)Gal(b1-4)GlcNAc
Procedure, shortened: as §1

[32] = target: Gal(b1-4)GlcNAc(b1-6)GalNAc
Procedure, shortened: as §1

[33] = target: Gal(b1-4)GlcNAc(b1-6)[Gal(b1-3)]GalNAc
Procedure, shortened: as §1

[34] = target: Gal(b1-4)GlcNAc(b1-6)[Gal(b1-4)GlcNAc(b1-3)]GalNAc
Procedure, shortened: as §1

[35] = target: Gal(b1-4)GlcNAc6P
Procedure, shortened: as §1

[36] = target: Gal(b1-6)Gal
Procedure, shortened: as §1

[37] = target: Gal3S(b1-3)GalNAc
Procedure, shortened: as §1

[38] = target: Gal3S(b1-3)GlcNAc
Procedure, shortened: as §1

B1: PVL (Psathyrella velutina), Q309D1_9AGAR (protein)
chain: MSVVVISQALPVPTRIPGVADLVGFGNGGVYIIRNSLLIQVVKVINNFGYDAGGWRVEKHVRLLADTTGDNQPDVVGFGENGVWISTNNGNNTFVDPPKMVLANFAYAAGGWRVEKHIRFMADLRKTGRADIVGFGDGGIYISRNNGGGQFAPAQLALNNFGYAQGWRLDRHLRFLADVTGDGLLDVVGFGENQVYIARNSGNGTFQPAQAVVNNFCIGAGGWTISAHPRVVADLTGDRKADILGFGVAGVYTSLNNGNGTFGAVNLVLKDFGVNSGWRVEKHVRCVSSLTNKKVGDIIGFGDAGVYVALNNGNGTFGPVKRVIDNFGYNQGWRVDKHPRFVVDLTGDGCADIVGFGENSVWACMNKGDGTFGPIMKLIDDMTVSKGWTLQKTVRYAANLYL
In the case of B1, the “glycan array binding signal (z-score)” value [1] is reported as -0.334, the “glycan array binding signal (z-score)” value [2] is reported as -0.363 and the “glycan array binding signal (z-score)” value [3] is reported as -0.367. The “glycan array binding signal (z-score)” value [4] was -0.121, the “glycan array binding signal (z-score)” value [5] was 0.17 and the “glycan array binding signal (z-score)” value [6] was -0.168. For the same binder, the “glycan array binding signal (z-score)” value [7] was 0.215, the “glycan array binding signal (z-score)” value [8] was -0.244 and the “glycan array binding signal (z-score)” value [9] was 0.09. The “glycan array binding signal (z-score)” value [10] was -0.171, the “glycan array binding signal (z-score)” value [11] was 0.199 and the “glycan array binding signal (z-score)” value [12] was -0.277. For the same binder, the “glycan array binding signal (z-score)” value [13] was 0.7, the “glycan array binding signal (z-score)” value [14] was 0.527 and the “glycan array binding signal (z-score)” value [15] was 0.536. The “glycan array binding signal (z-score)” value [16] was 0.956, the “glycan array binding signal (z-score)” value [17] was 0.639 and the “glycan array binding signal (z-score)” value [18] was 0.917. For the same binder, the “glycan array binding signal (z-score)” value [19] was 1.01, the “glycan array binding signal (z-score)” value [20] was 0.758 and the “glycan array binding signal (z-score)” value [21] was 1.08. The “glycan array binding signal (z-score)” value [22] was 1.15, the “glycan array binding signal (z-score)” value [23] was 0.218 and the “glycan array binding signal (z-score)” value [24] was -0.343. The “glycan array binding signal (z-score)” value [25] was -0.354, the “glycan array binding signal (z-score)” value [26] was -0.176 and the “glycan array binding signal (z-score)” value [27] was -0.258. The “glycan array binding signal (z-score)” value [28] was -0.325, the “glycan array binding signal (z-score)” value [29] was -0.306 and the “glycan array binding signal (z-score)” value [30] was 0.634. For the same binder, the “glycan array binding signal (z-score)” value [31] was -0.366, the “glycan array binding signal (z-score)” value [32] was -0.338 and the “glycan array binding signal (z-score)” value [33] was -0.073. For the same binder, the “glycan array binding signal (z-score)” value [34] was -0.321, the “glycan array binding signal (z-score)” value [35] was -0.356 and the “glycan array binding signal (z-score)” value [36] was -0.37. For the same binder, the “glycan array binding signal (z-score)” value [37] was -0.343 and the “glycan array binding signal (z-score)” value [38] was -0.362.
